Measured values published in US20230218776A1, “ANTI-NTB-A ANTIBODIES AND RELATED COMPOSITIONS AND METHODS” (SEAGEN INC., priority 2015, published 2023).

How the values were obtained:
Format in all cases: cell-based
[1] = tested on: Normal human T cells; test: Complement-dependent cytotoxicity (CDC), Sytox Green; settings: 0.02-50 μg/mL, human serum, 2 hours
Method: (§1) Complement-Dependent Cytotoxicity (CDC): Normal human T cells (All Cells, Alameda, Calif.) or cancer cell lines (ATCC, Manassas, Va.) were labelledlabeled with 5 μM Sytox Green (Life Technologies, Grand Island, N.Y.), then bound with serial a serial dose titrations of anti-human NTB-A h20F3 antibody or PBD dimer ADCies (0.02-50 μg/mL) in RPMI1640 media+1020% human serum (Complement Technology, Tyler, TX or Solomon Park Research Laboratories, Kirkland, Wash. Cells were incubated at 37° C., 5% CO2 for 2 hours, and fluorescence from lysed cells was measured with an Envision plate reader (Perkin Elmer, Waltham, Mass.). Data was expressed as a percentage of maximum cell lysis determined with a positive control of 1% TritonX-100-treated cells (Sigma, ST. Louis, Mo.).
(§2) Three cell types were used for analysis: normal human T cells, WIL2-S cells, and Raji cells. Expression of relevant receptors on each cell type is found in Table 7 and is indicated as number of receptor per cell.

[2] = tested on: Raji cell line; test: as above; settings: 0.02-50 μg/mL, human serum, 2 hours
Method: as §1, §2

[3] = tested on: WIL2-S cell line; test: as above; settings: 0.02-50 μg/mL, human serum, 2 hours
Method: as §1, §2

[4] = tested on: Normal human T cells; test: ADCC, flow cytometry-based assay with NK effector cells; settings: NK effector to target 10:1, 4 hours
Method: A flow cytometry-based assay was used to measure ADCC activity on normal human T cells. PKH2-labeled normal human T cell targets were bound with titrations of antibody (0.1 ng/mL-10 μg/mL) and then incubated with effector NK cells at an effector to target ratio of 10:1 for 4 hours at 37° C., 5% CO2. Viability was determined by 7-AAD incorporation as measured on the FACsCalibur flow cytometer (BD BioSciences, San Jose, Calif.).

B1: h20F3ec-1910(2) (conjugate)
heavy: QIQLVQSGSELKKPGASVKVSCKASGYTFTNYGMNWVRQAPGQDLKWMGWINTYSGEPRYADDFKGRFVFSLDKSVNTAYLQISSLKAEDTAVYYCARDYGRWYFDVWGQGTTVTVSS[sequence of human IgG1 constant region with changes omitted]
light: QIVLSQSPATLSLSPGERATMSCRASSSVSHMHWYQQKPGQAPRPWIYATSNLASGVPARFSGSGSGTDYTLTISSLEPEDFAVYYCQQWSSTPRTFGGGTKVEIKRTVAAPSVFIFPPSDEQLKSGTASVVCLLNNFYPREAKVQWKVDNALQSGNSQESVTEQDSKDSTYSLSSTLTLSKADYEKHKVYACEVTHQGLSSPVTKSFNRGEC
CDC Maximum % Specific Cell Lysis [1]: 2.1 ± 3.0%
CDC Maximum % Specific Cell Lysis [2]: 0.0 ± 0.0%
CDC Maximum % Specific Cell Lysis [3]: 0.3 ± 0.0%
ADCC Maximum % Specific Cell Lysis [4]: 19 ± 1.0%
